Where “and” joins values, the source holds several entries; their conditions need not be identical. Identical values can stand only once. The inconclusive results got no clear call from the source; some entries with a clear call stand among them for comparison. Where the call is inconclusive, the potency comes from a doubtful curve fit. Calls of active or inactive are those of the source. Unless noted, calls follow the shape of the dose curve; as a rule, active = well fitted curve in the direction sought with a large enough effect in the repeat runs; inconclusive = weak or mixed curves; inactive = no such curve, though single readings can be large; an effect the other way counts as inactive or inconclusive.
Assays:
[1] = qHTS assay to identify small molecule agonists of H2AX (AID 1224845; active = well fitted activation curve with a large enough effect in the signal ratio in the repeat runs, not every such curve was filed as active; inconclusive = weak or mixed curves; the % refers to the signal ratio; as to activation (H2AX phosphorylation): % is scaled to controls: 0 for no effect and ±100 for the full control effect); conditions: CHO-K1 phospho-H2AX Ser139 HTRF, 3 h; activation (H2AX phosphorylation): at 154 µM (top of the series) unless noted
Procedure, shortened: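 Wild-type CHO-K1 cells, plated overnight, exposed 3hr at 37C to 15 concentrations (0.76% DMSO final). Lysed, then HTRF anti-pH2AX (S139) cryptate and anti-H2AX-d2 antibodies, 24 hr room temperature; 665/620 nm emission read.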

[2] = qHTS assay to identify small molecule agonists of the hypoxia (HIF-1) signaling pathway (AID 1224846; active = well fitted activation curve with a large enough effect in the signal ratio in the repeat runs, not every such curve was filed as active; inconclusive = weak or mixed curves; the % refers to the signal ratio); conditions: HRE-bla ME-180 cells, beta-lactamase ratio, 17 h; activation: at 76.8 µM (top of the series) unless noted
Procedure, shortened: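 Compounds from the Tox21 10K library, dissolved in DMSO, are tested for induction of a hypoxia response element–controlled beta-lactamase reporter in ME-180 cells. Exposure lasts 17 hrs at 37C after a 5 hr settling period, followed by CCF4-AM FRET substrate.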

[3] = qHTS assay to identify small molecule agonists of H2AX - cell viability counter screen (AID 1224847; calls by dose curve; also: nearly all actives have a fitted effect of over 30% in size)
Procedure, shortened: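 Counter-screen for viability: CellTiter-Glo ATP luminescence read after 3 h compound treatment (15-point titration, 0.76% DMSO final) of CHO-K1 cells at 37C, with 30 min room-temperature reagent incubation.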

[4] = qHTS RealTime-Glo MT Cell Viability Assay in HepG2 cells - 24 hour (AID 1224867); also: nearly all actives have a fitted effect of over 50% in size
Procedure, shortened: (§1)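 Cells + NanoLuc/prosubstrate dispensed (600 cells/well) → 5 h at 37 C/5% CO2 → compounds in DMSO transferred → 40 h incubation at 37 C, luminescence read at 0, 8, 16, 24, 32, 40 h.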

[5] = qHTS RealTime-Glo MT Cell Viability Assay in HepG2 cells - 8 hour (AID 1224873); also: nearly all actives have a fitted effect of over 55% in size
Procedure, shortened: (§2)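 HepG2 cells (600/well) mixed with RealTime-Glo MT reagent, settled 5 h at 37 C/5% CO2 before compound addition. Nonlytic NanoLuc luminescence from viable-cell prosubstrate reduction read repeatedly during 40 h treatment at 37 C.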

[6] = A CellTox Green Cytotoxicity Assay to monitor cytotoxicity in HEK293 cells - 24 hour (AID 1224875); also: nearly all actives have a fitted effect of over 45% in size
Procedure, shortened: (§3)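 Cells (HEK293, 600/well) and dye reagent are dispensed together. After 5 h at 37 C, 23 nL compound is pinned in. Plates stay at 37 C for 40 h with fluorescence read at 0h, 8h, 16h, 24h, 32h and 40h.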

[7] = A CellTox Green Cytotoxicity Assay to monitor cytotoxicity in HEK293 cells - 32 hour (AID 1224881); also: nearly all actives have a fitted effect of over 40% in size
Procedure, shortened: as §3

[8] = qHTS RealTime-Glo MT Cell Viability Assay in HEK293 cells - 16 hour (AID 1224872); also: nearly all actives have a fitted effect of over 50% in size
Procedure, shortened: (§4)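 Tox21 10K qHTS, HEK293, 600 cells/well, RealTime-Glo reagent co-dispensed with cells; 5 h preincubation, compound by pintool, 37 C, luminescence at 0–40 h.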

[9] = qHTS RealTime-Glo MT Cell Viability Assay in HEK293 cells - 40 hour (AID 1224874); conditions: RealTime-Glo luminescence; max response: hits give low values; also: nearly all actives have a fitted effect of over 50% in size
Procedure, shortened: (§5)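 Real-time viability in HEK293: signal arises when living cells convert a prosubstrate for NanoLuc in the medium, so luminescence tracks viable cell number. Compound (23 nL, DMSO) added 5 h post-seeding; kinetic reads at 0–40 h, 37 C.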

[10] = A CellTox Green Cytotoxicity Assay to monitor cytotoxicity in HepG2 cells - 16 hour (AID 1224876); also: nearly all actives have a fitted effect of over 45% in size
Procedure, shortened: (§6)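 Cells and non-lytic dye reagent are dispensed together (600 HepG2 cells/well) and incubated 5 h before DMSO compound transfer. Kinetic fluorescence is then recorded in the same wells during 40 h at 37 C.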

[11] = qHTS RealTime-Glo MT Cell Viability Assay in HepG2 cells - 32 hour (AID 1224877); also: nearly all actives have a fitted effect of over 55% in size
Procedure, shortened: as §1

[12] = A CellTox Green Cytotoxicity Assay to monitor cytotoxicity in HepG2 cells - 24 hour (AID 1224878); also: nearly all actives have a fitted effect of over 45% in size
Procedure, shortened: as §6

[13] = A CellTox Green Cytotoxicity Assay to monitor cytotoxicity in HepG2 cells - 40 hour (AID 1224879); also: nearly all actives have a fitted effect of over 40% in size
Procedure, shortened: as §6

[14] = qHTS RealTime-Glo MT Cell Viability Assay in HEK293 cells - 0 hour (AID 1224880); also: nearly all actives have a fitted effect of over 45% in size
Procedure, shortened: as §5

[15] = qHTS assay to identify small molecule antagonists of the estrogen related receptor (ERR) signaling pathway from Tox21 library (AID 1224848); also: nearly all actives have a fitted effect of over 50% in size
Procedure, shortened: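 Compounds dissolved in DMSO are pin-transferred onto ERR reporter cells (2,000 per well) that have settled for 6 h at 37 C. Plates then incubate 18 h at 37 C before ONE-Glo luciferase reagent and a luminescence read 30 min later.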

[16] = A CellTox Green Cytotoxicity Assay to monitor cytotoxicity in HEK293 cells - 40 hour (AID 1224871); also: nearly all actives have a fitted effect of over 45% in size
Procedure, shortened: as §3

[17] = qHTS RealTime-Glo MT Cell Viability Assay in HEK293 cells - 32 hour (AID 1224868); also: nearly all actives have a fitted effect of over 50% in size
Procedure, shortened: as §4

[18] = qHTS RealTime-Glo MT Cell Viability Assay in HepG2 cells - 40 hour (AID 1224870); also: nearly all actives have a fitted effect of over 50% in size
Procedure, shortened: as §2

[19] = A CellTox Green Cytotoxicity Assay to monitor cytotoxicity in HEK293 cells - 0 hour (AID 1224869); conditions: CellTox Green fluorescence; also: nearly all actives have a fitted effect of over 50% in size
Procedure, shortened: as §3
Potency is read from the fitted curve at half-maximal effect; tags tell the direction and shape of the fitted curve or compound fluorescence and quenching.

CCCCCCCCCCCCCCCCCC[N+](C)(C)Cc1ccccc1
inactive: Potency [1]
inconclusive: Potency [2] 49.5 µM [falling, partial curve]
active: Potency [3] 45.4 µM | Potency [4] 49.5 µM | Potency [5] 49.5 µM | Potency [6] 24.8 µM | Potency [7] 24.8 µM

Clc1ccc(C(Cn2ccnc2)OCc2c(Cl)cccc2Cl)c(Cl)c1 (stereo unspecified)
inactive: Potency [11]
active: Potency [9] 16.9 µM
inconclusive: Potency [1] 39.1 µM [rising, partial curve] | Potency [2] 21.3 µM [falling, partial curve] | Potency [3] 61.9 µM [cytotoxic, single point] | Potency [4] 23.9 µM [falling, partial curve, poor fit] | Potency [8] 19 µM [cytotoxic, partial curve] | Potency [10] 10.7 µM [activator, single point] | Potency [12] 10.7 µM [activator, single point] | Potency [13] 26.8 µM [activator, single point] | Potency [14] 26.8 µM [falling, single point] | Potency [7] 12 µM [activator, single point]

CCC(C)(C)c1ccc(CC(C)CN2C[C@@H](C)O[C@@H](C)C2)cc1 (stereo partly specified)
active: Potency [16] 23.9 µM | Potency [6] 23.9 µM | Potency [7] 23.9 µM
inconclusive: Potency [1] 49.2 µM [activator, single point] | Potency [2] 26.8 µM [single point] | Potency [15] 23.7 µM [inhibitor, partial curve] | Potency [10] 19 µM [activator, partial curve]

CC(C)c1cccc(C(C)C)c1N1C(=O)c2ccc(O)cc2C1=O
active: Potency [4] 49 µM | Potency [5] 43.6 µM | Potency [12] 24.5 µM
inconclusive: activation (H2AX phosphorylation) [1] 7.92% | Potency [2] 43.6 µM [falling, partial curve] | Potency [17] 49 µM [cytotoxic, partial curve, poor fit] | Potency [8] 61.6 µM [cytotoxic, single point] | Potency [9] 49 µM [cytotoxic, partial curve, poor fit] | Potency [6] 54.9 µM [activator, single point] | Potency [7] 24.5 µM [activator, partial curve]

COc1cc(-c2nc(NC(=O)c3cc4cc(C)cc(C)c4n3CC(=O)O)sc2CCC2CCCCC2)c(OC)cc1Cl
inconclusive: Potency [1] 92.3 µM [falling, single point] | Potency [2] 25.2 µM [falling, partial curve] | Potency [3] 104 µM [cytotoxic, single point] | Potency [16] 50.4 µM [activator, single point] | Potency [8] 44.9 µM [cytotoxic, partial curve, poor fit] | Potency [10] 44.9 µM [activator, single point] | Potency [12] 44.9 µM [activator, single point]

O=S1(=O)CC(Cl)(Cl)C(Cl)(Cl)C1
inconclusive: Potency [1] 160 µM [falling, single point] | Potency [2] 4.36 µM [falling, full curve] | Potency [17] 0.776 µM [rising, partial curve] | Potency [9] 0.616 µM [rising, partial curve] | Potency [6] 24.5 µM [activator, partial curve, poor fit] | Potency [7] 1.95 µM [activator, full curve, poor fit]
active: Potency [3] 25.3 µM | Potency [8] 4.9 µM | Potency [5] 8.71 µM

CCCCCCCCOC(=O)c1cc(O)c(O)c(O)c1
inconclusive: Potency [1] 101 µM [falling, partial curve] | Potency [2] 43.6 µM [partial curve] | Potency [18] 24.5 µM [falling, partial curve] | Potency [6] 54.9 µM [activator, single point] | Potency [10] 49 µM [activator, partial curve] | Potency [7] 54.9 µM [activator, single point]
active: Potency [3] 89.8 µM | Potency [17] 11 µM | Potency [8] 6.92 µM

CCCCCCCCCCCCN(CCO)CCO
inconclusive: Potency [1] 126 µM [activator] | Potency [2] 54.7 µM | Potency [5] 48.8 µM [falling, partial curve, poor fit] | Potency [14] 43.5 µM [rising, partial curve]
active: Potency [3] 100 µM | Potency [4] 48.8 µM | Potency [8] 48.8 µM | Potency [12] 24.4 µM | Potency [13] 19.4 µM

CCN(CC)CCOc1ccc(/C(=C(\Cl)c2ccccc2)c2ccccc2)cc1
inconclusive: Potency [1] 72.8 µM [activator] and 55.2 µM [activator] | Potency [2] 50 µM [single point] and 26.8 µM [single point] | Potency [3] 55.2 µM [cytotoxic, single point] | Potency [14] 25.1 µM [rising, partial curve, poor fit]
active: Potency [12] 19.9 µM and 21.3 µM | Potency [7] 28.1 µM and 23.9 µM

CC(C)(c1cc(Br)c(OCCO)c(Br)c1)c1cc(Br)c(OCCO)c(Br)c1
inconclusive: Potency [1] 98.5 µM [activator] | Potency [2] 33.9 µM [falling, partial curve] | Potency [4] 42.7 µM [falling, partial curve, poor fit] | Potency [16] 42.7 µM [activator, partial curve, poor fit] | Potency [11] 38 µM [cytotoxic, partial curve, poor fit] | Potency [13] 42.7 µM [activator, single point]
active: Potency [9] 12 µM

C=CC(=O)OCC(CO)(COCC(COC(=O)C=C)(COC(=O)C=C)COC(=O)C=C)COC(=O)C=C
active: Potency [12] 48.4 µM | Potency [7] 43.1 µM
inconclusive: Potency [1] 8.87 µM [activator, partial curve] | Potency [2] 10.8 µM [falling, full curve] | Potency [3] 12.5 µM | Potency [17] 0.193 µM [rising, full curve] | Potency [10] 54.3 µM [activator, single point]

O=c1cc(-c2ccccc2)oc2ccccc12
active: Potency [8] 19.5 µM and 6.88 µM
inconclusive: activation (H2AX phosphorylation) [1] -6.77% and -1.58% | Potency [2] 10.9 µM [falling, full curve] | Potency [3] 127 µM [cytotoxic, single point] and 126 µM [cytotoxic] | Potency [19] 21.7 µM [activator, single point] | Potency [18] 49 µM [rising, partial curve, poor fit] | Potency [16] 55 µM [activator, single point] and 61.3 µM [activator, partial curve, poor fit] | Potency [5] 54.6 µM [phenotype inactive, partial curve, poor fit] | Potency [6] 21.7 µM [activator, single point] | Potency [10] 54.6 µM [activator, single point] | Potency [12] 24.5 µM [activator, partial curve] | Potency [7] 38.9 µM [activator, partial curve] and 21.7 µM [activator, single point]

CCN(CC)c1ccc(N)cc1
active: Potency [3] 51.9 µM | Potency [9] 17.8 µM
inconclusive: Potency [1] 58.2 µM [falling, partial curve] | Potency [2] 25.2 µM [falling, partial curve] | Potency [4] 50.3 µM [falling, partial curve] | Potency [5] 44.8 µM [falling, partial curve] | Potency [11] 50.3 µM [cytotoxic, single point] | Potency [12] 56.4 µM [activator, single point] | Potency [7] 44.8 µM [activator, partial curve, poor fit]

From PubChem BioAssay (Tox21)
